From PMC3903589, “The Receptor for Advanced Glycation End-Products (RAGE) Is Only Present in Mammals, and Belongs to a Family of Cell Adhesion Molecules (CAMs)” (PLoS ONE, 2014)

Molecular target: the molecule itself
Assay: SPR; His6-sRAGE immobilised on Ni-NTA chip (1500–2000 RU), sRAGE without His6-tag in the mobile phase; Biacore X; 20 mM HEPES, 150 mM NaCl, 0.005% P20, pH 7.6; 298 K; flow 10 µl/min

B1: Human recombinant sRAGE ([…]) (domain or fragment)
chain: not shown
notes: receptor for advanced glycation endproducts (RAGE), human, soluble extracellular part, […], cloned into pET15b; the copy in the mobile phase had the His6-tag removed by thrombin; GenBank NM001136 is printed for the full-length human RAGE cDNA; also called soluble RAGE; receptor for advanced glycation endproducts; source: E. coli BL21(DE3) Origami B, purified (Ni-Sepharose, Superdex 75; MonoS …)
For B1, which Kd is on record?
Its Kd is 470 ± 70 nM.
